PMC12820563
Some of the results follow. The list includes weakly bound sequences.

molecular target: T1, MBP-FoxP3dN (UniProt Q99JB6); assay: PD-seq (MBP pull-down with sequencing); details: 20 mM Tris-HCl pH 7.5, 100 mM NaCl, 1.5 mM MgCl2, 0.4 uM protein, 0.1 uM dsDNA library, 30 min, room temperature, amylose pull-down; high values mean tight binding; double strand, one strand shown
T1 sequence: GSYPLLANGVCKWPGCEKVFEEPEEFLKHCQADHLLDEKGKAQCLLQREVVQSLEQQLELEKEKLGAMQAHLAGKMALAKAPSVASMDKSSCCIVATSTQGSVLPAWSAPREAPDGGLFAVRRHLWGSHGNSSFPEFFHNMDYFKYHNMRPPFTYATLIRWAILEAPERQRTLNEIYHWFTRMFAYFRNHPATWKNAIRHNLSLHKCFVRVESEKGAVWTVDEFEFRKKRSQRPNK

| Sequence | binding signal (RPM ratio (pull-down/input)) |
| --- | --- |
| GATGATTGTTCTCCCAGCTGATGAATTCCGCCCTTCGAGTAAACAAATTTTCCTAATCTTTCTGTTCAAGCGCCATCTAC | 1.71 |
| GATGATTGTTCTCCCAGCTGATGAATTTCCACGCTCGAGTAAACAAATTTTCCTAATCTTTCTGTTCAAGCGCCATCTAC | 0.314 |
| GATGATTGTTCTCCCAGCTGATGAATTGTCAGGATCGAGTAAACAAATTTTCCTAATCTTTCTGTTCAAGCGCCATCTAC | 0.249 |
| GATGATTGTTCTCCCAGCTGATGAATTAGCTATATCGAGTAAACAAATTTTCCTAATCTTTCTGTTCAAGCGCCATCTAC | 0.669 |
| GATGATTGTTCTCCCAGCTGATGAATTCCCCGGTTCGAGTAAACAAATTTTCCTAATCTTTCTGTTCAAGCGCCATCTAC | 0.197 |
| GATGATTGTTCTCCCAGCTGATGAATTCATCTAGTCGAGTAAACAAATTTTCCTAATCTTTCTGTTCAAGCGCCATCTAC | 0.354 |
| GATGATTGTTCTCCCAGCTGATGAATTACTCACATCGAGTAAACAAATTTTCCTAATCTTTCTGTTCAAGCGCCATCTAC | 0.839 |
| GATGATTGTTCTCCCAGCTGATGAATTGAGCGTATCGAGTAAACAAATTTTCCTAATCTTTCTGTTCAAGCGCCATCTAC | 1.08 |
| GATGATTGTTCTCCCAGCTGATGAATTAGTCCAATCGAGTAAACAAATTTTCCTAATCTTTCTGTTCAAGCGCCATCTAC | 0.342 |
| GATGATTGTTCTCCCAGCTGATGAATTGCAAGCTTCGAGTAAACAAATTTTCCTAATCTTTCTGTTCAAGCGCCATCTAC | 0.843 |
| GATGATTGTTCTCCCAGCTGATGAATTTGAGCCTTCGAGTAAACAAATTTTCCTAATCTTTCTGTTCAAGCGCCATCTAC | 1.85 |
| GATGATTGTTCTCCCAGCTGATGAATTATTAGTCTCGAGTAAACAAATTTTCCTAATCTTTCTGTTCAAGCGCCATCTAC | 1.02 |
| GATGATTGTTCTCCCAGCTGATGAATTCATAAGCTCGAGTAAACAAATTTTCCTAATCTTTCTGTTCAAGCGCCATCTAC | 0.294 |
| GATGATTGTTCTCCCAGCTGATGAATTCAGGGTCTCGAGTAAACAAATTTTCCTAATCTTTCTGTTCAAGCGCCATCTAC | 0.56 |
| GATGATTGTTCTCCCAGCTGATGAATTCTGAAAATCGAGTAAACAAATTTTCCTAATCTTTCTGTTCAAGCGCCATCTAC | 0.189 |
| GATGATTGTTCTCCCAGCTGATGAATTGCATCGGTCGAGTAAACAAATTTTCCTAATCTTTCTGTTCAAGCGCCATCTAC | 1.43 |
| GATGATTGTTCTCCCAGCTGATGAATTCCAGGAATCGAGTAAACAAATTTTCCTAATCTTTCTGTTCAAGCGCCATCTAC | 0.154 |
| GATGATTGTTCTCCCAGCTGATGAATTTACAAAATCGAGTAAACAAATTTTCCTAATCTTTCTGTTCAAGCGCCATCTAC | 0.51 |
| GATGATTGTTCTCCCAGCTGATGAATTCTTATTTTCGAGTAAACAAATTTTCCTAATCTTTCTGTTCAAGCGCCATCTAC | 0.818 |
| GATGATTGTTCTCCCAGCTGATGAATTCGTCTCTTCGAGTAAACAAATTTTCCTAATCTTTCTGTTCAAGCGCCATCTAC | 0.526 |
| GATGATTGTTCTCCCAGCTGATGAATTGCTAACATCGAGTAAACAAATTTTCCTAATCTTTCTGTTCAAGCGCCATCTAC | 1.09 |

| Sequence | binding signal (RPM ratio (pull-down/input)) |
| --- | --- |
| GATGATTGTTCTCCCAGCTGATGAATTAGGCTGCTCGAGTAAACAAATTTTCCTAATCTTTCTGTTCAAGCGCCATCTAC | 0.639 |
| GATGATTGTTCTCCCAGCTGATGAATTGCGGAGCTCGAGTAAACAAATTTTCCTAATCTTTCTGTTCAAGCGCCATCTAC | 0.454 |
| GATGATTGTTCTCCCAGCTGATGAATTGACTACCTCGAGTAAACAAATTTTCCTAATCTTTCTGTTCAAGCGCCATCTAC | 0.373 |
| GATGATTGTTCTCCCAGCTGATGAATTGGTACCCTCGAGTAAACAAATTTTCCTAATCTTTCTGTTCAAGCGCCATCTAC | 0.521 |
| GATGATTGTTCTCCCAGCTGATGAATTCCACGCCTCGAGTAAACAAATTTTCCTAATCTTTCTGTTCAAGCGCCATCTAC | 0.585 |
| GATGATTGTTCTCCCAGCTGATGAATTTACTGATTCGAGTAAACAAATTTTCCTAATCTTTCTGTTCAAGCGCCATCTAC | 0.851 |
| GATGATTGTTCTCCCAGCTGATGAATTAGATAGGTCGAGTAAACAAATTTTCCTAATCTTTCTGTTCAAGCGCCATCTAC | 0.415 |
| GATGATTGTTCTCCCAGCTGATGAATTTGGTTTCTCGAGTAAACAAATTTTCCTAATCTTTCTGTTCAAGCGCCATCTAC | 2.31 |
| GATGATTGTTCTCCCAGCTGATGAATTGGGGATATCGAGTAAACAAATTTTCCTAATCTTTCTGTTCAAGCGCCATCTAC | 0.444 |
| GATGATTGTTCTCCCAGCTGATGAATTTGATGTATCGAGTAAACAAATTTTCCTAATCTTTCTGTTCAAGCGCCATCTAC | 4.63 |
| GATGATTGTTCTCCCAGCTGATGAATTGTGTAAGTCGAGTAAACAAATTTTCCTAATCTTTCTGTTCAAGCGCCATCTAC | 1.32 |
| GATGATTGTTCTCCCAGCTGATGAATTACTTGGTTCGAGTAAACAAATTTTCCTAATCTTTCTGTTCAAGCGCCATCTAC | 0.411 |
| GATGATTGTTCTCCCAGCTGATGAATTCGAGGCCTCGAGTAAACAAATTTTCCTAATCTTTCTGTTCAAGCGCCATCTAC | 0.504 |
| GATGATTGTTCTCCCAGCTGATGAATTAGAGAGATCGAGTAAACAAATTTTCCTAATCTTTCTGTTCAAGCGCCATCTAC | 0.231 |
| GATGATTGTTCTCCCAGCTGATGAATTACTAGCTTCGAGTAAACAAATTTTCCTAATCTTTCTGTTCAAGCGCCATCTAC | 0.393 |
| GATGATTGTTCTCCCAGCTGATGAATTGGCTACTTCGAGTAAACAAATTTTCCTAATCTTTCTGTTCAAGCGCCATCTAC | 0.418 |
| GATGATTGTTCTCCCAGCTGATGAATTTACATGCTCGAGTAAACAAATTTTCCTAATCTTTCTGTTCAAGCGCCATCTAC | 0.82 |
| GATGATTGTTCTCCCAGCTGATGAATTGACTGTCTCGAGTAAACAAATTTTCCTAATCTTTCTGTTCAAGCGCCATCTAC | 0.449 |
| GATGATTGTTCTCCCAGCTGATGAATTCGGCTCGTCGAGTAAACAAATTTTCCTAATCTTTCTGTTCAAGCGCCATCTAC | 0.512 |
| GATGATTGTTCTCCCAGCTGATGAATTCATTTGGTCGAGTAAACAAATTTTCCTAATCTTTCTGTTCAAGCGCCATCTAC | 2.19 |
| GATGATTGTTCTCCCAGCTGATGAATTAACACCCTCGAGTAAACAAATTTTCCTAATCTTTCTGTTCAAGCGCCATCTAC | 0.385 |

| Sequence | binding signal (RPM ratio (pull-down/input)) |
| --- | --- |
| GATGATTGTTCTCCCAGCTGATGAATTACAGTGTTCGAGTAAACAAATTTTCCTAATCTTTCTGTTCAAGCGCCATCTAC | 0.809 |
| GATGATTGTTCTCCCAGCTGATGAATTTGAATGATCGAGTAAACAAATTTTCCTAATCTTTCTGTTCAAGCGCCATCTAC | 0.488 |
| GATGATTGTTCTCCCAGCTGATGAATTGCGTTCCTCGAGTAAACAAATTTTCCTAATCTTTCTGTTCAAGCGCCATCTAC | 1.24 |
| GATGATTGTTCTCCCAGCTGATGAATTAGCCGGTTCGAGTAAACAAATTTTCCTAATCTTTCTGTTCAAGCGCCATCTAC | 0.257 |
| GATGATTGTTCTCCCAGCTGATGAATTAATGCTCTCGAGTAAACAAATTTTCCTAATCTTTCTGTTCAAGCGCCATCTAC | 1.37 |
| GATGATTGTTCTCCCAGCTGATGAATTCATTCCATCGAGTAAACAAATTTTCCTAATCTTTCTGTTCAAGCGCCATCTAC | 0.306 |
| GATGATTGTTCTCCCAGCTGATGAATTGGGCGTATCGAGTAAACAAATTTTCCTAATCTTTCTGTTCAAGCGCCATCTAC | 1.07 |
| GATGATTGTTCTCCCAGCTGATGAATTTCGTGCATCGAGTAAACAAATTTTCCTAATCTTTCTGTTCAAGCGCCATCTAC | 1.22 |
| GATGATTGTTCTCCCAGCTGATGAATTAGTACCTTCGAGTAAACAAATTTTCCTAATCTTTCTGTTCAAGCGCCATCTAC | 0.7 |
| GATGATTGTTCTCCCAGCTGATGAATTACTCTGCTCGAGTAAACAAATTTTCCTAATCTTTCTGTTCAAGCGCCATCTAC | 0.3 |
| GATGATTGTTCTCCCAGCTGATGAATTGGCCCCCTCGAGTAAACAAATTTTCCTAATCTTTCTGTTCAAGCGCCATCTAC | 0.311 |
| GATGATTGTTCTCCCAGCTGATGAATTCGAGGCTTCGAGTAAACAAATTTTCCTAATCTTTCTGTTCAAGCGCCATCTAC | 0.466 |
| GATGATTGTTCTCCCAGCTGATGAATTACAACAATCGAGTAAACAAATTTTCCTAATCTTTCTGTTCAAGCGCCATCTAC | 2.82 |
| GATGATTGTTCTCCCAGCTGATGAATTGATGGGTTCGAGTAAACAAATTTTCCTAATCTTTCTGTTCAAGCGCCATCTAC | 0.58 |
| GATGATTGTTCTCCCAGCTGATGAATTAGATTCATCGAGTAAACAAATTTTCCTAATCTTTCTGTTCAAGCGCCATCTAC | 0.555 |
| GATGATTGTTCTCCCAGCTGATGAATTACATGTCTCGAGTAAACAAATTTTCCTAATCTTTCTGTTCAAGCGCCATCTAC | 0.829 |
| GATGATTGTTCTCCCAGCTGATGAATTCGGGAAATCGAGTAAACAAATTTTCCTAATCTTTCTGTTCAAGCGCCATCTAC | 0.297 |
| GATGATTGTTCTCCCAGCTGATGAATTTGAGTAATCGAGTAAACAAATTTTCCTAATCTTTCTGTTCAAGCGCCATCTAC | 0.649 |
| GATGATTGTTCTCCCAGCTGATGAATTGGACGGATCGAGTAAACAAATTTTCCTAATCTTTCTGTTCAAGCGCCATCTAC | 0.179 |
| GATGATTGTTCTCCCAGCTGATGAATTTTAGGGTTCGAGTAAACAAATTTTCCTAATCTTTCTGTTCAAGCGCCATCTAC | 0.369 |
| GATGATTGTTCTCCCAGCTGATGAATTCTAGACTTCGAGTAAACAAATTTTCCTAATCTTTCTGTTCAAGCGCCATCTAC | 0.361 |
